This assay relates to NCI-H322M lung. The experiment in a line: NCI tumour cell line growth inhibition, 48 h.

Where “and” joins values, the source holds several entries; their conditions need not be identical. Equal values may be shown once.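 In this assay, cells in 96-well plates receive the compound at five concentrations for 48 hours. Endpoints are linearly interpolated between the surrounding concentrations. GI50 = concentration required for 50% inhibition of growth. TGI is the concentration that stops growth completely.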 Square brackets hold non-standard residues; d marks the D form. Peptide text beside a SMILES is read from it. Ava = NCCCCC(=O)O; Mpa = O=C(O)CCS

`Cc1nc2c(Cl)cc(Cl)cc2c2c1CCO2` registered a TGI greater than 100 µM. For `O=C1CCCC2=C1CC1=C(CCCC1=O)N2c1ccc(Cl)cc1`, the TGI was greater than 100 µM. `C[C@H]1C[C@@H](n2c(Nc3ccc(OC(F)(F)F)cc3)nc3cc(CCC(=O)O)ccc32)CC(C)(C)C1`: the GI50 was 11.6 µM and the TGI stood at 23.8 µM.

Take `CN(c1cccc(C(=O)O)c1)c1cc(O/N=[N+](\[O-])N(C)C)c([N+](=O)[O-])cc1[N+](=O)[O-]`: the GI50 is greater than 100 µM and the TGI is greater than 100 µM.

As to `CC1=CC(=O)NP(=O)(Oc2ccc(Cl)cc2)N1` (stereo unspecified), the TGI was greater than 100 µM. Consider `O=[N+]([O-])c1ccccc1/C=N\NC(=S)N/N=C/c1ccccc1[N+](=O)[O-]`, for which the GI50 was 7.29 µM and the TGI came to 89.1 µM. Consider `O=C1OC(C(O)CO)C(C(O)CO)OC1=O` (stereo unspecified), for which the TGI is greater than 10 µM. `COc1ccc2nc3cc(Cl)ccc3c(Nc3ccccc3-c3ccccc3Nc3c4ccc(Cl)cc4nc4ccc(OC)cc34)c2c1` had a TGI greater than 78 µM. `CC1=C[P+](c2ccccc2)(c2ccccc2)c2ccccc2O1` yielded a TGI of 65 µM.

Turning to `COc1ccc(-c2c(C#N)c(N)[nH]c(=S)c2C#N)cc1`, the TGI is greater than 100 µM. As to `CN[C@@H](C)C(=O)N[C@H](C(=O)N1CCC[C@H]1c1nc(C(=O)c2ccc(F)cc2)cs1)C1CCCCC1`, the GI50 is 42.7 µM and the TGI is greater than 100 µM. Regarding `COc1ccc(N2C(=O)C3ON(Cc4ccc(CC(N)=O)cc4)C(c4c5ccccc5c(C)c5ccccc45)C3C2=O)cc1` (stereo unspecified), the TGI was greater than 100 µM. Regarding `N=c1oc2ccc3ccccc3c2cc1-c1nc2ccccc2c(=O)[nH]1`, the TGI was greater than 100 µM. Regarding `CC(NC(=O)CCS)C(=O)NC(C)C(=O)NC(Cc1c[nH]c2ccccc12)C(=O)NC(Cc1c[nH]cn1)C(=O)NC(CO)C(=O)NC(Cc1c[nH]c2ccccc12)C(=O)NCCCCC(=O)NC(C)C(=O)NC(CCC(N)=O)C(=O)NC(CCCCN)C(=O)NC(C)C(=O)NC(CCCNC(=N)N)C(=O)NC(CCCCN)C(N)=O` (stereo unspecified) ([Mpa]AAWHSW[Ava]AQKARK-NH2; configuration not given here), the TGI was greater than 100 µM.

Regarding `CCN1C(=O)N(CC)C2C1NN=c1s/c(=C3\C(=O)Nc4ccccc43)c(=O)n12` (stereo unspecified), the GI50 is 0.764 µM and the TGI was greater than 100 µM. As for `O=C1OC(c2ccc([N+](=O)[O-])cc2)=N/C1=C\c1ccc(Cl)cc1`, the TGI is greater than 100 µM. For the compound `Cc1cccc(NC(=O)c2c(N)[n+]([O-])c3ccccc3[n+]2[O-])c1`, the TGI was determined as 30.9 µM. In the case of `O=S1(=O)OCCOS(=O)(=O)C1(F)Cc1ccccc1`, the TGI is greater than 100 µM. The same measure, in the same setting: in the case of `Cc1cccc2c(=O)c3cccc([C@H](C)C(=O)O)c3oc12` it was greater than 100 µM; in that of `Cc1c(C)c2cc3c(=O)c(CCl)coc3c(C)c2oc1=O`, greater than 100 µM; in that of `CC1=C(C)C(=O)OC(C(C)(O)C2(O)CC3OC34C3CC(O)C56OC5C=CC(=O)C6(C)C3CCC42C)C1` (stereo unspecified), 21.2 µM. For `O=C(CCN1CCCC1)Nc1ccc2c(Nc3ccc(F)cc3)c3ccccc3nc2c1`, the GI50 was 1.41 µM and the TGI is 3.59 µM. `Cc1[nH]n(-c2nc(-c3ccccc3)cc(=O)[nH]2)c(=O)c1CCO` registered a TGI greater than 100 µM. Still for that read-out and setting: in the case of `CC1OC(NCCNCCNC2OC(C)C(O)C(O)C2O)C(O)C(O)C1O` (stereo unspecified) it was greater than 100 µM. The compound `Cc1cc(=O)[nH]c2cc(NC(=O)C(C)NC(=O)C(C)NC(=O)C(C)NC(=O)OC(C)(C)C)ccc12` (stereo unspecified) showed a TGI greater than 15 µM. As for `COC(=O)C1(Cc2ccc3c(c2)CCC3)Cc2ccc3c(c2C1=O)CCC3` (stereo unspecified), the TGI is greater than 100 µM. Consider `CN(C)CCNC(=O)c1ccc2c(c1)oc1cc3ccccc3c(=O)n12`, for which the GI50 was 12.4 µM and the TGI stood at 30.1 µM. Compound `CCC1c2[nH]c3ccccc3c2C[C@H]2C(=O)NC(C)C(=O)N12` (stereo partly specified) showed a TGI greater than 100 µM. On the same count and under the same terms, as for `O=C(N/N=C\c1ccc(Cl)cc1)Nc1ccc2ccccc2c1`, the figure is greater than 100 µM.

In turn, `COC(=O)c1csc(-c2csc(CCNC(=O)OC(C)(C)C)n2)n1` had a TGI greater than 100 µM. Consider `COc1ccc(-c2nc(NC(=O)CS(=O)(=O)c3ccc(F)cc3)sc2C)cc1`, for which the GI50 was 42.3 µM and the TGI is greater than 100 µM. As for `COc1ccc2c(=O)c(-c3cc(OC)c(OC)cc3OC)coc2c1`, the TGI was greater than 100 µM. As for `CC(=O)c1cc2c(Br)cccc2oc1=O`, the TGI was greater than 100 µM. On the same count and under the same terms, in the case of `O=C(O)c1cccc([As]=[As]c2cccc(C(=O)O)c2)c1` (stereo unspecified) it was greater than 100 µM; in that of `COc1cc2ncnc(NS(=O)(=O)c3cc4ccccc4s3)c2cc1OC`, greater than 100 µM; in that of `CC(C)CC1c2[nH]c3ccccc3c2C[C@H]2C(=O)NC(Cc3c[nH]c4ccccc34)C(=O)N12` (stereo partly specified), 45.1 µM. In the case of `O=c1cc(NNc2ccccc2)[nH]c(=O)[nH]1`, the TGI turned out to be 40.2 µM. The compound `O=C(Nc1cc(Cl)c(I)c(Cl)c1)C(F)(F)F` yielded a TGI of 78.3 µM. Turning to `COC(=O)CNC(=O)C(=O)c1c(O)c(O)c(C(C)C)c2cc(C)c(-c3c(C)cc4c(C(C)C)c(O)c(O)c(C(=O)C(=O)NCC(=O)OC)c4c3O)c(O)c12`, the GI50 was 1.74 µM and the TGI was found to be 10.6 µM. The compound `CCO/N=C\c1ccc2oc(-c3ccccc3)cc(=O)c2c1` displayed a TGI of 47 µM. Still for that read-out and setting: as for `COc1ccc(SCc2cc(OC)ccc2OC)cc1`, the figure is greater than 100 µM.

`CC(C)(C)OC(=O)NCCCCCCCCCn1c2c(c3ccccc3c1=O)C(=O)c1ccccc1-2`: the GI50 is greater than 100 µM and the TGI was greater than 100 µM. Consider `CC(=O)/C=C1\CC(=O)N(C)c2ccccc2N1`, for which the TGI was greater than 100 µM.

Consider `COc1ccc(/C=C\c2cc(OC)c(OC)c(OC)c2)cc1NC(=O)/C=C/c1ccc(OC)c(OC)c1`, for which the GI50 is greater than 100 µM and the TGI was greater than 100 µM. For `N#CN1CC[C@@H]2CC3(CCC2C1)OCCO3` (stereo partly specified), the TGI is greater than 100 µM. Turning to `COc1ccc(Cn2cc3c(c2-c2ccccc2)CCc2cnoc2-3)cc1`, the GI50 was 2.09 µM and the TGI is greater than 100 µM. Regarding `CCOC(CBr)OC1C(=O)OCC1(C)C` (stereo unspecified), the TGI was greater than 100 µM.

Regarding `Nc1nc(N)nc(CCCCc2nc(N)nc(N)n2)n1`, the TGI was greater than 100 µM. For the compound `CCC/C=C/C=C/C(=O)OC1/C(=C/C(=O)OC)CC2CC(C(C)O)OC(=O)CC(O)CC3CC(OC(C)=O)C(C)(C)C(O)(CC4C/C(=C/C(=O)OC)CC(/C=C/C(C)(C)C1(O)O2)O4)O3` (stereo unspecified), the TGI was 10.9 µM and 11 µM and > 12.5 µM.

For `O=C1/C(=C/c2ccc(F)cc2)COc2ccc(O)c(O)c21`, the GI50 is 4.22 µM and the TGI was greater than 100 µM. With `COc1cc(C[C@@]2(C)[C@@H]3CCC[C@H](CO)[C@@]3(C)CC[C@@H]2C)c(Cl)c(OC)c1`, the TGI amounted to 30.9 µM.

Take `CC(C)(C)OC(=O)N(CCCCN(CCCn1c2c(c3ccccc3c1=O)C(=O)c1ccccc1-2)C(=O)OC(C)(C)C)CCCn1c2c(c3ccccc3c1=O)C(=O)c1ccccc1-2`: the GI50 is greater than 100 µM and the TGI was greater than 100 µM.
